In the supplement of paper PMC8728848:
Some of the results follow.

Columns and labels:
Test in all cases: glycan array binding signal (z-score within array); higher = stronger binding
Settings in all cases: glycan notation: IUPAC condensed, linker removed
[1] = molecular target: Neu5Ac(a2-6)Gal(b1-4)GlcNAc(b1-2)Man(a1-3)[Man(a1-6)]Man(b1-4)GlcNAc(b1-4)GlcNAc
In short: (§1)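 The binding signal is a Z-score computed within each array. Data were drawn from 3228 arrays in the Consortium for Functional Glycomics database, restricted to those with a known protein sequence. Scores were averaged over arrays of the same protein sequence at different concentrations or buffers, and over linkers, and negative values can be taken as non-binding.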

[2] = molecular target: Neu5Ac(a2-6)Gal(b1-4)GlcNAc(b1-2)Man(a1-3)[Neu5Ac(a2-3)Gal(b1-4)GlcNAc(b1-2)Man(a1-6)]Man(b1-4)GlcNAc(b1-4)GlcNAc
In short: as §1

[3] = molecular target: Neu5Ac(a2-6)Gal(b1-4)GlcNAc(b1-2)Man(a1-3)[Neu5Ac(a2-6)Gal(b1-4)GlcNAc(b1-2)Man(a1-6)]Man(b1-4)GlcNAc(b1-4)GlcNAc
In short: as §1

[4] = molecular target: Neu5Ac(a2-6)Gal(b1-4)GlcNAc(b1-2)Man(a1-3)[Neu5Ac(a2-6)Gal(b1-4)GlcNAc(b1-2)Man(a1-6)]Man(b1-4)GlcNAc(b1-4)[Fuc(a1-6)]GlcNAc
In short: as §1

[5] = molecular target: Neu5Ac(a2-6)Gal(b1-4)GlcNAc(b1-2)Man(a1-6)Man(b1-4)GlcNAc(b1-4)GlcNAc
In short: as §1

[6] = molecular target: Neu5Ac(a2-6)Gal(b1-4)GlcNAc(b1-2)Man(a1-6)[Gal(b1-4)GlcNAc(b1-2)Man(a1-3)]Man(b1-4)GlcNAc(b1-4)GlcNAc
In short: as §1

[7] = molecular target: Neu5Ac(a2-6)Gal(b1-4)GlcNAc(b1-2)Man(a1-6)[GlcNAc(b1-2)Man(a1-3)]Man(b1-4)GlcNAc(b1-4)GlcNAc
In short: as §1

[8] = molecular target: Neu5Ac(a2-6)Gal(b1-4)GlcNAc(b1-2)Man(a1-6)[Man(a1-3)]Man(b1-4)GlcNAc(b1-4)GlcNAc
In short: as §1

[9] = molecular target: Neu5Ac(a2-6)Gal(b1-4)GlcNAc(b1-2)[Neu5Ac(a2-6)Gal(b1-4)GlcNAc(b1-4)]Man(a1-3)[GlcNAc(b1-4)][Neu5Ac(a2-6)Gal(b1-4)GlcNAc(b1-2)[Neu5Ac(a2-6)Gal(b1-4)GlcNAc(b1-6)]Man(a1-6)]Man(b1-4)GlcNAc(b1-4)GlcNAc
In short: as §1

[10] = molecular target: Neu5Ac(a2-6)Gal(b1-4)GlcNAc(b1-2)[Neu5Ac(a2-6)Gal(b1-4)GlcNAc(b1-4)]Man(a1-3)[GlcNAc(b1-4)][Neu5Ac(a2-6)Gal(b1-4)GlcNAc(b1-4)Man(a1-6)]Man(b1-4)GlcNAc(b1-4)GlcNAc
In short: as §1

[11] = molecular target: Neu5Ac(a2-6)Gal(b1-4)GlcNAc(b1-2)[Neu5Ac(a2-6)Gal(b1-4)GlcNAc(b1-6)]Man(a1-6)[Neu5Ac(a2-6)Gal(b1-4)GlcNAc(b1-2)Man(a1-3)][GlcNAc(b1-4)]Man(b1-4)GlcNAc(b1-4)GlcNAc
In short: as §1

[12] = molecular target: Neu5Ac(a2-6)Gal(b1-4)GlcNAc(b1-3)Gal(b1-3)GlcNAc
In short: as §1

[13] = molecular target: Neu5Ac(a2-6)Gal(b1-4)GlcNAc(b1-3)Gal(b1-4)GlcNAc
In short: as §1

[14] = molecular target: Neu5Ac(a2-6)Gal(b1-4)GlcNAc(b1-3)Gal(b1-4)GlcNAc(b1-2)Man(a1-3)[Neu5Ac(a2-6)Gal(b1-4)GlcNAc(b1-3)Gal(b1-4)GlcNAc(b1-2)Man(a1-6)]GalNAc
In short: as §1

[15] = molecular target: Neu5Ac(a2-6)Gal(b1-4)GlcNAc(b1-3)Gal(b1-4)GlcNAc(b1-3)Gal(b1-4)GlcNAc
In short: as §1

[16] = molecular target: Neu5Ac(a2-6)Gal(b1-4)GlcNAc(b1-3)Gal(b1-4)GlcNAc(b1-3)Gal(b1-4)GlcNAc(b1-2)Man(a1-3)[Neu5Ac(a2-6)Gal(b1-4)GlcNAc(b1-3)Gal(b1-4)GlcNAc(b1-3)Gal(b1-4)GlcNAc(b1-2)Man(a1-6)]GalNAc
In short: as §1

[17] = molecular target: Neu5Ac(a2-6)Gal(b1-4)GlcNAc(b1-3)Gal(b1-4)GlcNAc(b1-3)GalNAc
In short: as §1

[18] = molecular target: Neu5Ac(a2-6)Gal(b1-4)GlcNAc(b1-3)Gal(b1-4)GlcNAc(b1-3)[Neu5Ac(a2-6)Gal(b1-4)GlcNAc(b1-3)Gal(b1-4)GlcNAc(b1-6)]GalNAc
In short: as §1

[19] = molecular target: Neu5Ac(a2-6)Gal(b1-4)GlcNAc(b1-3)Gal(b1-4)GlcNAc(b1-6)[Gal(b1-3)]GalNAc
In short: as §1

[20] = molecular target: Neu5Ac(a2-6)Gal(b1-4)GlcNAc(b1-3)Gal(b1-4)[Fuc(a1-3)]GlcNAc(b1-3)Gal(b1-4)[Fuc(a1-3)]GlcNAc
In short: as §1

[21] = molecular target: Neu5Ac(a2-6)Gal(b1-4)GlcNAc(b1-3)GalNAc
In short: as §1

[22] = molecular target: Neu5Ac(a2-6)Gal(b1-4)GlcNAc(b1-3)[Neu5Ac(a2-6)Gal(b1-4)GlcNAc(b1-6)]GalNAc
In short: as §1

[23] = molecular target: Neu5Ac(a2-6)Gal(b1-4)GlcNAc(b1-6)GalNAc
In short: as §1

[24] = molecular target: Neu5Ac(a2-6)Gal(b1-4)GlcNAc(b1-6)[Gal(b1-3)GlcNAc(b1-3)]Gal(b1-4)Glc
In short: as §1

[25] = molecular target: Neu5Ac(a2-6)Gal(b1-4)GlcNAc(b1-6)[Gal(b1-3)]GalNAc
In short: as §1

[26] = molecular target: Neu5Ac(a2-6)Gal(b1-4)GlcNAc6S
In short: as §1

Neu5Ac(a2-6)GalNAc = molecular target: Neu5Ac(a2-6)GalNAc
In short: as §1

[27] = molecular target: Neu5Ac(a2-6)GalNAc(b1-4)GlcNAc
In short: as §1

[28] = molecular target: Neu5Ac(a2-6)GalNAc(b1-4)GlcNAc6S
In short: as §1

[29] = molecular target: Neu5Ac(a2-6)GlcNAc(b1-4)GlcNAc
In short: as §1

[30] = molecular target: Neu5Ac(a2-6)GlcNAc(b1-4)GlcNAc(b1-4)GlcNAc
In short: as §1

B1: PX9961A-pdi-456-24-456 (Parabacteroides distasonis) (protein)
chain: KTSSTQLPTIDAISSVADLTNAVNGVYEQQATEVGSYGAEFTLLADLRSGDFQSISTVNHAGPMYRYQTGKNDEMVYSFYKLFYNSLARLNNVLAAAENLEGADVDILKGELYAMRALYHFDLARVFAKLPSTTDMNDLGIVLSTEVYPTDYIGTRATLQQTYDQILKDIETALPLLSKDKQTGHINYWGALAIRARAYLYLEKNKEALADCKEIIASSPYKLYTRDEYIGAWDKEGTNEAIFEILVTPNYNAQRNSIGYFTHASGYGECAATESFLEELAKHPGDIRTELFAKETDNGYDGTYPQKYKGRDGQIYVNNPKVVRLSEVYLIAAEAALKAGDTSAAAGYMNTLRKNRIENYTDVASITLDDILLERRLELFTEGHTAWDAWRNGKSVNNKFVGEVKPGDYRTIMAIPIGEITVSRGQLIQNPGY
- glycan array binding signal (z-score) [1]: -0.58
- glycan array binding signal (z-score) [2]: -0.397
- glycan array binding signal (z-score) [3]: -0.198
- glycan array binding signal (z-score) [4]: 0.763
- glycan array binding signal (z-score) [5]: -0.434
- glycan array binding signal (z-score) [6]: -0.101
- glycan array binding signal (z-score) [7]: -0.653
- glycan array binding signal (z-score) [8]: -0.241
- glycan array binding signal (z-score) [9]: 0.806
- glycan array binding signal (z-score) [10]: -0.061
- glycan array binding signal (z-score) [11]: -0.07
- glycan array binding signal (z-score) [12]: -0.085
- glycan array binding signal (z-score) [13]: -0.41
- glycan array binding signal (z-score) [14]: -0.415
- glycan array binding signal (z-score) [15]: -0.16
- glycan array binding signal (z-score) [16]: 0.269
- glycan array binding signal (z-score) [17]: -0.552
- glycan array binding signal (z-score) [18]: -0.346
- glycan array binding signal (z-score) [19]: -0.172
- glycan array binding signal (z-score) [20]: -0.091
- glycan array binding signal (z-score) [21]: 0.125
- glycan array binding signal (z-score) [22]: -0.049
- glycan array binding signal (z-score) [23]: 0.035
- glycan array binding signal (z-score) [24]: -0.26
- glycan array binding signal (z-score) [25]: -0.445
- glycan array binding signal (z-score) [26]: 0.35
- glycan array binding signal (z-score) (Neu5Ac(a2-6)GalNAc): -0.274
- glycan array binding signal (z-score) [27]: -0.529
- glycan array binding signal (z-score) [28]: -0.348
- glycan array binding signal (z-score) [29]: -0.484
- glycan array binding signal (z-score) [30]: 0.275
